# The supplement of paper PMC4166925
# ± gives the standard deviation of the averaged measurements. The full ranking holds about 33,000 sequences; the median of “E-score (dimensionless, -0.5 to 0.5)” is about -0.049, and the highest 2% start at about 0.37. The list shows a part of the results.
# Test system: T1, PmTbr T-box DNA-binding domain (GST fusion)
# T1 sequence: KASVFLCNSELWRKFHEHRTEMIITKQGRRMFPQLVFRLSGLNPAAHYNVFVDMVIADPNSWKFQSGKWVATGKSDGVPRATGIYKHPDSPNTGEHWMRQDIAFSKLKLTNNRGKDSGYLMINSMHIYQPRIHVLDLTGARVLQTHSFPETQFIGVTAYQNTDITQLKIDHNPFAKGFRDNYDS
# Assay: PBM E-score of 8-mer (E-score (dimensionless, -0.5 to 0.5)); Tbr is Tbrain of the sea star Patiria miniata (Pm) or the sea urchin Strongylocentrotus purpuratus (Sp); higher = stronger binding preference; most listed sequences are background and not binding sites
# Conditions: the construct has about 5 more residues each side
# Outline: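 Each ungapped 8-mer received an enrichment E-score from the Universal PBM Analysis Suite, averaged over duplicate arrays. The proteins were Tbr T-box DNA-binding domains, covering the whole T-box plus about five flanking residues, fused to GST and expressed in BL21 E. coli at 20 °C before glutathione affinity purification. Universal Agilent oligonucleotide arrays were made double-stranded by primer extension and incubated with 200 nM protein in PBS (pH 7.5). The arrays were then scanned and quantified, and every 8-mer was scored from probe intensities.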
row,Sequence,PBM E-score of 8-mer
1,AATCATGC,-0.121 ± 0.018
2,TAAACAGA,0.158 ± 0.016
3,ATCACCTA,0.392 ± 0.022
4,CATTCTGC,0.0492 ± 0.069
5,AAGTGGAG,-0.269 ± 0.042
6,ATCCGTTC,-0.166 ± 0.0096
7,AACGGTGA,0.176 ± 0.036
8,AATACAAT,-0.334 ± 0.023
9,CACGACGA,-0.0644 ± 0.054
10,ATGAGATC,-0.271 ± 0.074
11,CAAATTAA,0.00713 ± 0.076
12,CAAAACGA,0.0243 ± 0.034
13,AACCAATG,-0.267 ± 0.0029
14,GCGTATGA,-0.0712 ± 0.044
15,AATTATAG,-0.276 ± 0.017
16,AAGCCAAC,-0.215 ± 0.02
17,ATCAACAT,-0.163 ± 0.076
18,AGGTAAGA,-0.252 ± 0.06
19,CTAGCGAG,0.162 ± 0.12
20,TGCCTCCA,-0.314 ± 0.032
21,CAGCGTGC,-0.0551 ± 0.019
22,ATTTTCAC,0.217 ± 0.07
23,CCAGTCCC,-0.0516 ± 0.072
24,TTCGTCAA,0.166 ± 0.072
25,CCCCATGC,-0.155 ± 0.1

row,Sequence,PBM E-score of 8-mer
1,AAGAACGT,0.0982 ± 0.085
2,CTACTATC,-0.0875 ± 0.067
3,ATCAGTAC,-0.0998 ± 0.043
4,ACGGGCAA,-0.133 ± 0.057
5,CAGACCCG,0.201 ± 0.0028
6,CAATTCAG,-0.0904 ± 0.014
7,GTCTAAAC,-0.1 ± 0.016
8,CGATCGAC,0.182 ± 0.012
9,ATTCAATA,-0.13 ± 0.031
10,TAGCATGA,-0.143 ± 0.0037
11,TTCATCAA,-0.132 ± 0.029
12,TATTCTAA,-0.168 ± 0.075
13,AGGATAAG,-0.133 ± 0.011
14,CGAATATC,0.00707 ± 0.03
15,CACCTGAG,0.37535 ± 0.00034
16,GCGGCTAA,0.116 ± 0.025
17,GACCAGGA,-0.164 ± 0.074
18,TGGGTGAA,-0.158 ± 0.043
19,ACAGGAAT,-0.0353 ± 0.015
20,CTGCACAG,0.0206 ± 0.07
21,AGTTTTGC,0.0662 ± 0.03
22,CGGACTAA,-0.0827 ± 0.038
23,GGGAAGAC,0.0167 ± 0.044
24,TAGCTAAA,-0.135 ± 0.11
25,AGGGATGG,-0.184 ± 0.019

row,Sequence,PBM E-score of 8-mer
1,CACACCAG,0.399 ± 0.018
2,ACGACGCA,-0.185 ± 0.04
3,AATCCCCA,0.0304 ± 0.051
4,CTTCGGGC,-0.141 ± 0.071
5,GGTACTAC,-0.199 ± 0.025
6,GCGAAGCA,0.129 ± 0.032
7,AGTAGCCC,-0.224 ± 0.068
8,CGCAGTTC,0.0883 ± 0.018
9,CCACTAAG,-0.13 ± 0.037
10,AGTGGCAT,0.0805 ± 0.0044
11,TATTGGGA,-0.222 ± 0.0037
12,GGAGGACC,-0.319 ± 0.021
13,AGATTTTA,-0.0741 ± 0.014
14,AGGACTGC,-0.264 ± 0.005
15,AGACTCAG,-0.176 ± 0.1
16,CACCGATG,0.0976 ± 0.028
17,CCCGATTA,0.0524 ± 0.024
18,GAATTCAC,0.157 ± 0.065
19,GTATCCAA,-0.122 ± 0.013
20,AAATTAGA,-0.215 ± 0.017
21,CTCGTTGA,0.117 ± 0.0086
22,TCCAATCA,-0.0699 ± 0.008
23,CACCGGAA,0.0148 ± 0.014
24,CCATGTGA,0.249 ± 0.017
25,ATTGACAG,0.15 ± 0.052

row,Sequence,PBM E-score of 8-mer
1,GAAAGTCC,-0.0976 ± 0.013
2,ACCTTTGA,0.0474 ± 0.073
3,GCAATCGA,-0.0452 ± 0.025
4,ATTACGCG,0.178 ± 0.037
5,ACGTCATG,-0.0872 ± 0.015
6,ACCAGCGA,0.118 ± 0.023
7,CGGGTAAC,0.181 ± 0.013
8,ATCCTCAA,-0.175 ± 0.0031
9,CAGCCGCA,0.0329 ± 0.043
10,ACAAGGGT,-0.0432 ± 0.035
11,GGAACTCA,-0.217 ± 0.0056
12,TCATGGAA,-0.178 ± 0.021
13,AGTAGCAC,0.357 ± 0.021
14,ACATGGGT,-0.0955 ± 0.028
15,AAGGATAG,-0.112 ± 0.017
16,CTGACCGC,-0.263 ± 0.036
17,TCATAGGA,-0.288 ± 0.013
18,TAAAGAAA,-0.0357 ± 0.024
19,AGCTACGC,-0.0634 ± 0.009
20,ACGAACGC,-0.0318 ± 0.025
21,ACGTTAGG,-0.118 ± 0.032
22,GGTAGTCA,-0.225 ± 0.0084
23,ATCACCAG,-0.0506 ± 0.043
24,ACTGAAAA,-0.0773 ± 0.076
25,CGCGGATA,0.039 ± 0.062

row,Sequence,PBM E-score of 8-mer
1,ACGCCTCG,0.356 ± 0.018
2,CTTAGCTA,-0.126 ± 0.029
3,CTTCTCTC,0.078 ± 0.034
4,GCGTTGTA,0.102 ± 0.0047
5,CCATGAAA,-0.275 ± 0.06
6,CTAGCCAC,0.00299 ± 0.033
7,ACGGATCT,-0.118 ± 0.0064
8,GTATTCGA,0.0428 ± 0.0073
9,GTGGGCGA,-0.05 ± 0.04
10,CCGGAGAC,0.0396 ± 0.052
11,ACAGACCA,-0.221 ± 0.056
12,CAGAGGAC,-0.222 ± 0.068
13,ACTAGTAT,-0.0181 ± 0.0013
14,ATAGAACC,-0.0785 ± 0.034
15,AGAAAACG,-0.188 ± 0.06
16,GGACTCCA,-0.2 ± 0.0023
17,CCCCATGA,-0.319 ± 0.038
18,CCATCAAG,-0.211 ± 0.03
19,ACCATCCA,-0.227 ± 0.05
20,CACGTATA,0.144 ± 0.025
21,CCTGGGCA,-0.0775 ± 0.023
22,ATTAAGCG,-0.0857 ± 0.02
23,CGTCCGGA,-0.352 ± 0.038
24,ACGTCTAT,-0.0516 ± 0.026
25,GGCAAACC,-0.196 ± 0.021

row,Sequence,PBM E-score of 8-mer
1,AGCGTTCA,0.0667 ± 0.031
2,TAACCTCA,-0.152 ± 0.0019
3,CATCGGAC,-0.182 ± 0.051
4,AAATCTGA,-0.0321 ± 0.14
5,AGCTATGA,-0.211 ± 0.031
6,GCGGTGAA,0.0135 ± 0.017
7,CATACCTC,0.0641 ± 0.035
8,ACTCATCC,-0.203 ± 0.024
9,AAACAGCC,-0.0308 ± 0.073
10,GCTACGAA,0.148 ± 0.018
11,ATGATTGG,-0.125 ± 0.048
12,ATCAGGCA,-0.0961 ± 0.031
13,ACCTCTCT,0.0009 ± 0.12
14,AGCCTGAC,-0.16 ± 0.0071
15,GCATGTAA,-0.124 ± 0.0041
16,CAATCTGG,-0.191 ± 0.018
17,CACATTAA,0.0988 ± 0.071
18,TAGATCAA,-0.205 ± 0.035
19,AAAGTGAT,0.299 ± 0.012
20,GACCCACC,-0.0714 ± 0.12
21,GATACCCA,-0.115 ± 0.021
22,AACGCTCC,-0.0249 ± 0.017
23,ACTAAAGC,0.0215 ± 0.041
24,AAAGCGTA,-0.0884 ± 0.056
25,GCACGATA,-0.145 ± 0.033

row,Sequence,PBM E-score of 8-mer
1,AATTTCGT,-0.0997 ± 0.08
2,AGATAAAA,-0.0961 ± 0.085
3,GACACATA,0.322 ± 0.038
4,AGGAACTC,-0.232 ± 0.04
5,AGTAACGA,0.073 ± 0.024
6,AAGGTAGT,0.0368 ± 0.095
7,AACGCAGC,-0.0607 ± 0.025
8,CGCTTGAG,-0.0499 ± 0.011
9,AAGCGACA,0.195 ± 0.069
10,AGGTCCAT,-0.228 ± 0.022
11,CACTCACA,0.357 ± 0.012
12,TCGCTAAA,0.163 ± 0.043
13,ACTGTTCA,-0.0217 ± 0.047
14,CGATATCA,0.163 ± 0.074
15,AATCGCCG,-0.108 ± 0.0071
16,GCCGGTGA,-0.0636 ± 0.022
17,CACCGTCC,0.0123 ± 0.0021
18,AGGCCGCA,0.00458 ± 0.028
19,ATTATATA,-0.223 ± 0.0047
20,CCGACACA,0.37 ± 0.028
21,AGAGGCCA,-0.0561 ± 0.032
22,GACTCCTC,0.0454 ± 0.092
